# The supplement of paper PMC8728848
# The other results are listed elsewhere or left out.
# Legend:
# Experiment in all cases: glycan array binding signal (z-score within array); higher = stronger binding
# Conditions in all cases: glycan notation: IUPAC condensed, linker removed; mutation: E347A
# GalNAc(b1-3)GalNAc = biological target: GalNAc(b1-3)GalNAc
# Outline: (§1)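 Glycan array binding is given as a within-array Z-score, which can be read as non-binding when negative. The arrays, 3228 of them, came from the Consortium for Functional Glycomics database and were retained only where the protein sequence was available. Z-scores were averaged across arrays of the same protein sequence at different concentrations or buffers and across linkers.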
# GalNAc(b1-4)GlcNAc = biological target: GalNAc(b1-4)GlcNAc
# Outline: as §1
# Glc(a1-4)Glc = biological target: Glc(a1-4)Glc
# Outline: as §1
# Glc(a1-6)Glc(a1-6)Glc = biological target: Glc(a1-6)Glc(a1-6)Glc
# Outline: as §1
# Glc(b1-4)Glc = biological target: Glc(b1-4)Glc
# Outline: as §1
# Glc(b1-6)Glc = biological target: Glc(b1-6)Glc
# Outline: as §1
# GlcA(b1-3)Gal = biological target: GlcA(b1-3)Gal
# Outline: as §1
# GlcA(b1-3)GlcNAc = biological target: GlcA(b1-3)GlcNAc
# Outline: as §1
# GlcA(b1-6)Gal = biological target: GlcA(b1-6)Gal
# Outline: as §1
# [1] = biological target: GlcNAc(a1-3)Gal(b1-4)GlcNAc
# Outline: as §1
# [2] = biological target: GlcNAc(a1-6)Gal(b1-4)GlcNAc
# Outline: as §1
# [3] = biological target: GlcNAc(b1-2)Gal(b1-3)GalNAc
# Outline: as §1
# [4] = biological target: GlcNAc(b1-2)Man(a1-3)[GlcNAc(b1-2)Man(a1-6)]Man(b1-4)GlcNAc(b1-4)GlcNAc
# Outline: as §1
# GlcNAc(b1-3)Gal = biological target: GlcNAc(b1-3)Gal
# Outline: as §1
# [5] = biological target: GlcNAc(b1-3)Gal(b1-3)GalNAc
# Outline: as §1
# GlcNAc(b1-3)Gal(b1-4)Glc = biological target: GlcNAc(b1-3)Gal(b1-4)Glc
# Outline: as §1
# [6] = biological target: GlcNAc(b1-3)Gal(b1-4)GlcNAc
# Outline: as §1
# [7] = biological target: GlcNAc(b1-3)Gal(b1-4)GlcNAc(b1-3)Gal(b1-4)GlcNAc
# Outline: as §1
# GlcNAc(b1-3)GalNAc = biological target: GlcNAc(b1-3)GalNAc
# Outline: as §1
# GlcNAc(b1-3)Man = biological target: GlcNAc(b1-3)Man
# Outline: as §1
# [8] = biological target: GlcNAc(b1-3)[GlcNAc(b1-4)][GlcNAc(b1-6)]GlcNAc
# Outline: as §1
# [9] = biological target: GlcNAc(b1-3)[GlcNAc(b1-6)]Gal(b1-4)GlcNAc
# Outline: as §1
# [10] = biological target: GlcNAc(b1-3)[GlcNAc(b1-6)]GalNAc
# Outline: as §1
# [11] = biological target: GlcNAc(b1-4)Gal(b1-4)GlcNAc
# Outline: as §1
# GlcNAc(b1-4)GlcNAc = biological target: GlcNAc(b1-4)GlcNAc
# Outline: as §1
# [12] = biological target: GlcNAc(b1-4)GlcNAc(b1-4)GlcNAc
# Outline: as §1
# [13] = biological target: GlcNAc(b1-4)GlcNAc(b1-4)GlcNAc(b1-4)GlcNAc(b1-4)GlcNAc
# Outline: as §1
# [14] = biological target: GlcNAc(b1-4)GlcNAc(b1-4)GlcNAc(b1-4)GlcNAc(b1-4)GlcNAc(b1-4)GlcNAc
# Outline: as §1
# [15] = biological target: GlcNAc(b1-4)[GlcNAc(b1-6)]GalNAc
# Outline: as §1
# [16] = biological target: GlcNAc(b1-6)Gal(b1-4)GlcNAc
# Outline: as §1
# GlcNAc(b1-6)GalNAc = biological target: GlcNAc(b1-6)GalNAc
# Outline: as §1
# GlcNAc3Prop(b1-4)GlcNAc = biological target: GlcNAc3Prop(b1-4)GlcNAc
# Outline: as §1
# Kdn(a2-3)Gal(b1-3)GlcNAc = biological target: Kdn(a2-3)Gal(b1-3)GlcNAc
# Outline: as §1
# Kdn(a2-3)Gal(b1-4)GlcNAc = biological target: Kdn(a2-3)Gal(b1-4)GlcNAc
# Outline: as §1
# [17] = biological target: Man(a1-2)Man(a1-2)Man(a1-3)Man
# Outline: as §1
# [18] = biological target: Man(a1-2)Man(a1-2)Man(a1-6)[Man(a1-3)]Man
# Outline: as §1
# Man(a1-2)Man(a1-3)Man = biological target: Man(a1-2)Man(a1-3)Man
# Outline: as §1
# [19] = biological target: Man(a1-2)Man(a1-3)[Man(a1-2)Man(a1-6)]Man
# Outline: as §1
# [20] = biological target: Man(a1-2)Man(a1-3)[Man(a1-2)Man(a1-6)]Man(a1-6)[Man(a1-2)Man(a1-2)Man(a1-3)]Man
# Outline: as §1
# [21] = biological target: Man(a1-2)Man(a1-3)[Man(a1-2)Man(a1-6)]Man(a1-6)[Man(a1-2)Man(a1-2)Man(a1-3)]Man(b1-4)GlcNAc(b1-4)GlcNAc
# Outline: as §1
# [22] = biological target: Man(a1-2)Man(a1-3)[Man(a1-6)]Man(a1-6)[Man(a1-2)Man(a1-3)]Man(b1-4)GlcNAc(b1-4)GlcNAc
# Outline: as §1
# [23] = biological target: Man(a1-2)Man(a1-6)[Man(a1-3)]Man(a1-6)[Man(a1-2)Man(a1-2)Man(a1-3)]Man
# Outline: as §1
# [24] = biological target: Man(a1-2)Man(a1-6)[Man(a1-3)]Man(a1-6)[Man(a1-2)Man(a1-2)Man(a1-3)]Man(b1-4)GlcNAc(b1-4)GlcNAc
# Outline: as §1
# Man(a1-3)[Man(a1-6)]Man = biological target: Man(a1-3)[Man(a1-6)]Man
# Outline: as §1
# [25] = biological target: Man(a1-3)[Man(a1-6)]Man(a1-6)[Man(a1-2)Man(a1-3)]Man(b1-4)GlcNAc(b1-4)GlcNAc
# Outline: as §1
# [26] = biological target: Man(a1-3)[Man(a1-6)]Man(a1-6)[Man(a1-3)]Man
# Outline: as §1
# [27] = biological target: Man(a1-3)[Man(a1-6)]Man(a1-6)[Man(a1-3)]Man(b1-4)GlcNAc(b1-4)GlcNAc
# Outline: as §1
# [28] = biological target: Man(a1-3)[Man(a1-6)]Man(b1-4)GlcNAc(b1-4)GlcNAc
# Outline: as §1
# Man(a1-6)Man = biological target: Man(a1-6)Man
# Outline: as §1
# Man(b1-4)GlcNAc = biological target: Man(b1-4)GlcNAc
# Outline: as §1
# Neu5Ac(a2-3)Gal = biological target: Neu5Ac(a2-3)Gal
# Outline: as §1
# [29] = biological target: Neu5Ac(a2-3)Gal(b1-3)GalNAc
# Outline: as §1
# [30] = biological target: Neu5Ac(a2-3)Gal(b1-3)GalNAc(b1-3)Gal(a1-4)Gal(b1-4)Glc
# Outline: as §1
# [31] = biological target: Neu5Ac(a2-3)Gal(b1-3)GalNAc(b1-3)Gal(b1-4)GlcNAc
# Outline: as §1
# [32] = biological target: Neu5Ac(a2-3)Gal(b1-3)GalNAc(b1-4)[Neu5Ac(a2-3)]Gal(b1-4)Glc
# Outline: as §1
# [33] = biological target: Neu5Ac(a2-3)Gal(b1-3)GalNAc6S
# Outline: as §1
# [34] = biological target: Neu5Ac(a2-3)Gal(b1-3)GlcNAc
# Outline: as §1
# [35] = biological target: Neu5Ac(a2-3)Gal(b1-3)GlcNAc(b1-3)Gal(b1-3)GlcNAc
# Outline: as §1
# [36] = biological target: Neu5Ac(a2-3)Gal(b1-3)GlcNAc6S
# Outline: as §1
binder,measurement,setting,value
Surfactant Protein D (Human); Neck + Carbohydrate Recognition Domain (NCRD) (Homo sapiens) (protein) MLLFLLSALVLLTQPLGYLEAEMKTYSHRTMPSACTLVMCSSVESGLPGRDRDGREGPRGEKGDPGLPGAAGQAGMPGQAGPVGPKGDNGSVGEPGPKGDTGPSGPPGPPGVPGPAGREGALGKQGNIGPQGKPGPKGEAGPKGEVGAPGMQGSAGARGLAGPKGERGVPGERGVPGNTGAAGSAGAMGPQGSPGARGPPGLKGDKGIPGDKGAKGESGLPDVASLRQQVEALQGQVQHLQAAFSQYKKVELFPNGQSVGEKIFKTAQFVKPFTEAQLLCTQAGGQLASPRSAAENAALQQLVVAKNEAAFLSMTDSKTEGKFTYPTGESLVYSNWAPGEPNDDGGSADCVEIFTNGKWNDRACGAKRLVVCEF,glycan array binding signal (z-score),GalNAc(b1-3)GalNAc,-0.433
same,glycan array binding signal (z-score),GalNAc(b1-4)GlcNAc,-0.131
same,glycan array binding signal (z-score),Glc(a1-4)Glc,-0.277
same,glycan array binding signal (z-score),Glc(a1-6)Glc(a1-6)Glc,-0.483
same,glycan array binding signal (z-score),Glc(b1-4)Glc,-0.481
same,glycan array binding signal (z-score),Glc(b1-6)Glc,-0.061
same,glycan array binding signal (z-score),GlcA(b1-3)Gal,-0.025
same,glycan array binding signal (z-score),GlcA(b1-3)GlcNAc,-0.461
same,glycan array binding signal (z-score),GlcA(b1-6)Gal,0.001
same,glycan array binding signal (z-score),[1],-0.451
same,glycan array binding signal (z-score),[2],-0.2
same,glycan array binding signal (z-score),[3],-0.21
same,glycan array binding signal (z-score),[4],-0.193
same,glycan array binding signal (z-score),GlcNAc(b1-3)Gal,-0.071
same,glycan array binding signal (z-score),[5],0.038
same,glycan array binding signal (z-score),GlcNAc(b1-3)Gal(b1-4)Glc,-0.453
same,glycan array binding signal (z-score),[6],-0.336
same,glycan array binding signal (z-score),[7],-0.163
same,glycan array binding signal (z-score),GlcNAc(b1-3)GalNAc,0.066
same,glycan array binding signal (z-score),GlcNAc(b1-3)Man,-0.334
same,glycan array binding signal (z-score),[8],0.071
same,glycan array binding signal (z-score),[9],-0.283
same,glycan array binding signal (z-score),[10],-0.308
same,glycan array binding signal (z-score),[11],-0.184
same,glycan array binding signal (z-score),GlcNAc(b1-4)GlcNAc,-0.104
same,glycan array binding signal (z-score),[12],0.708
same,glycan array binding signal (z-score),[13],-0.165
same,glycan array binding signal (z-score),[14],-0.023
same,glycan array binding signal (z-score),[15],0.112
same,glycan array binding signal (z-score),[16],-0.176
same,glycan array binding signal (z-score),GlcNAc(b1-6)GalNAc,-0.036
same,glycan array binding signal (z-score),GlcNAc3Prop(b1-4)GlcNAc,-0.18
same,glycan array binding signal (z-score),Kdn(a2-3)Gal(b1-3)GlcNAc,-0.027
same,glycan array binding signal (z-score),Kdn(a2-3)Gal(b1-4)GlcNAc,0.165
same,glycan array binding signal (z-score),[17],1.11
same,glycan array binding signal (z-score),[18],0.579
same,glycan array binding signal (z-score),Man(a1-2)Man(a1-3)Man,1.58
same,glycan array binding signal (z-score),[19],6.34
same,glycan array binding signal (z-score),[20],-0.461
same,glycan array binding signal (z-score),[21],0.006
same,glycan array binding signal (z-score),[22],10.1
same,glycan array binding signal (z-score),[23],5.19
same,glycan array binding signal (z-score),[24],1.25
same,glycan array binding signal (z-score),Man(a1-3)[Man(a1-6)]Man,-0.421
same,glycan array binding signal (z-score),[25],10.2
same,glycan array binding signal (z-score),[26],-0.448
same,glycan array binding signal (z-score),[27],0.008
same,glycan array binding signal (z-score),[28],-0.257
same,glycan array binding signal (z-score),Man(a1-6)Man,-0.148
same,glycan array binding signal (z-score),Man(b1-4)GlcNAc,-0.234
same,glycan array binding signal (z-score),Neu5Ac(a2-3)Gal,-0.038
same,glycan array binding signal (z-score),[29],-0.217
same,glycan array binding signal (z-score),[30],-0.219
same,glycan array binding signal (z-score),[31],-0.2
same,glycan array binding signal (z-score),[32],0
same,glycan array binding signal (z-score),[33],0.272
same,glycan array binding signal (z-score),[34],-0.335
same,glycan array binding signal (z-score),[35],0.031
same,glycan array binding signal (z-score),[36],0.016
